These results are taken from paper PMC12820563, “FoxP3 forms a head-to-head dimer in vivo and stabilizes its multimerization on adjacent microsatellites”.

Some of the results follow.

The assay deals with T1, MBP-FoxP1dN (Mus musculus, UniProt P58462 326-579).
T1 sequence: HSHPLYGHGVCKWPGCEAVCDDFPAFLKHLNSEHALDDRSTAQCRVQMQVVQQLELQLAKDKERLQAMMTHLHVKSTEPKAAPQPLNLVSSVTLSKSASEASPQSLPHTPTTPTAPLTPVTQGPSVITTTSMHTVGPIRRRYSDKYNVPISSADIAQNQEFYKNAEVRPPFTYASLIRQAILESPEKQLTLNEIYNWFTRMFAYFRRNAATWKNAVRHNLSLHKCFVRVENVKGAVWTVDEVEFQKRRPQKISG
Nature of the assay: PD-seq (MBP pull-down with sequencing); 20 mM Tris-HCl pH 7.5, 100 mM NaCl, 1.5 mM MgCl2, 0.4 uM protein, 0.1 uM dsDNA library, 30 min, room temperature, amylose pull-down; high values mean tight binding. As to conditions: protein: recombinant; tags: His6-MBP; chain copies: 2; dsDNA, one strand shown. Summed up: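 Binding is reads-per-million enrichment of pull-down over input, with replicates pooled. It comes from 30 min room-temperature incubation in Tris pH 7.5 buffer with NaCl and MgCl2 of 0.4 µM His6-MBP-tagged, N-terminally truncated mouse FoxP3 or FoxP1 fragment from E. coli with 0.1 µM Klenow-filled degenerate double-stranded DNA library, followed by amylose resin capture, three washes and Illumina sequencing of the released DNA.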
Regarding “GATGATTGTTCTCCCAGCTGATGAATTCTGAGCATCGAGTAAACAAATTTTCCTAATCTTTCTGTTCAAGCGCCATCTAC”, the binding signal was 1.06 RPM ratio (pull-down/input).

As for “GATGATTGTTCTCCCAGCTGATGAATTCACTTGATCGAGTAAACAAATTTTCCTAATCTTTCTGTTCAAGCGCCATCTAC”, the binding signal was 0.902 RPM ratio (pull-down/input).

As to “GATGATTGTTCTCCCAGCTGATGAATTAATAAATTCGAGTAAACAAATTTTCCTAATCTTTCTGTTCAAGCGCCATCTAC”, the binding signal was 1.17 RPM ratio (pull-down/input).

“GATGATTGTTCTCCCAGCTGATGAATTTGTCTTGTCGAGTAAACAAATTTTCCTAATCTTTCTGTTCAAGCGCCATCTAC”: the binding signal was 1.11 RPM ratio (pull-down/input).

Turning to “GATGATTGTTCTCCCAGCTGATGAATTAGTGGATTCGAGTAAACAAATTTTCCTAATCTTTCTGTTCAAGCGCCATCTAC”, the binding signal was 0.961 RPM ratio (pull-down/input).

As for “GATGATTGTTCTCCCAGCTGATGAATTGGCAATATCGAGTAAACAAATTTTCCTAATCTTTCTGTTCAAGCGCCATCTAC”, the binding signal was 1.16 RPM ratio (pull-down/input).

“GATGATTGTTCTCCCAGCTGATGAATTGAAGTGATCGAGTAAACAAATTTTCCTAATCTTTCTGTTCAAGCGCCATCTAC”: the binding signal was 0.877 RPM ratio (pull-down/input).

In the case of “GATGATTGTTCTCCCAGCTGATGAATTCTTGTGATCGAGTAAACAAATTTTCCTAATCTTTCTGTTCAAGCGCCATCTAC”, the binding signal is 1.15 RPM ratio (pull-down/input).

As to “GATGATTGTTCTCCCAGCTGATGAATTCACCTCCTCGAGTAAACAAATTTTCCTAATCTTTCTGTTCAAGCGCCATCTAC”, the binding signal was 0.774 RPM ratio (pull-down/input).

For “GATGATTGTTCTCCCAGCTGATGAATTATGCGCCTCGAGTAAACAAATTTTCCTAATCTTTCTGTTCAAGCGCCATCTAC”, the binding signal was 1.13 RPM ratio (pull-down/input).

Consider “GATGATTGTTCTCCCAGCTGATGAATTAGCCAAGTCGAGTAAACAAATTTTCCTAATCTTTCTGTTCAAGCGCCATCTAC”, for which the binding signal was 0.791 RPM ratio (pull-down/input).

“GATGATTGTTCTCCCAGCTGATGAATTGAATGCGTCGAGTAAACAAATTTTCCTAATCTTTCTGTTCAAGCGCCATCTAC”: the binding signal is 1.14 RPM ratio (pull-down/input).

With “GATGATTGTTCTCCCAGCTGATGAATTGCGCAACTCGAGTAAACAAATTTTCCTAATCTTTCTGTTCAAGCGCCATCTAC”, the binding signal was 1.16 RPM ratio (pull-down/input).

In the case of “GATGATTGTTCTCCCAGCTGATGAATTATCCTATTCGAGTAAACAAATTTTCCTAATCTTTCTGTTCAAGCGCCATCTAC”, the binding signal is 0.973 RPM ratio (pull-down/input).

Take “GATGATTGTTCTCCCAGCTGATGAATTGACACGGTCGAGTAAACAAATTTTCCTAATCTTTCTGTTCAAGCGCCATCTAC”: the binding signal is 1.06 RPM ratio (pull-down/input).

On to “GATGATTGTTCTCCCAGCTGATGAATTAGCTACTTCGAGTAAACAAATTTTCCTAATCTTTCTGTTCAAGCGCCATCTAC”, for which the binding signal was 0.921 RPM ratio (pull-down/input).

As for “GATGATTGTTCTCCCAGCTGATGAATTTGGCTCCTCGAGTAAACAAATTTTCCTAATCTTTCTGTTCAAGCGCCATCTAC”, the binding signal is 0.857 RPM ratio (pull-down/input).

“GATGATTGTTCTCCCAGCTGATGAATTCATGTAATCGAGTAAACAAATTTTCCTAATCTTTCTGTTCAAGCGCCATCTAC”: the binding signal was 1.5 RPM ratio (pull-down/input).

On to “GATGATTGTTCTCCCAGCTGATGAATTGTTGCGGTCGAGTAAACAAATTTTCCTAATCTTTCTGTTCAAGCGCCATCTAC”, for which the binding signal was 1.28 RPM ratio (pull-down/input).

Consider “GATGATTGTTCTCCCAGCTGATGAATTCGTCCTTTCGAGTAAACAAATTTTCCTAATCTTTCTGTTCAAGCGCCATCTAC”, for which the binding signal is 0.845 RPM ratio (pull-down/input).

Turning to “GATGATTGTTCTCCCAGCTGATGAATTTCGGCCTTCGAGTAAACAAATTTTCCTAATCTTTCTGTTCAAGCGCCATCTAC”, the binding signal was 0.824 RPM ratio (pull-down/input).

With “GATGATTGTTCTCCCAGCTGATGAATTGCTAAGTTCGAGTAAACAAATTTTCCTAATCTTTCTGTTCAAGCGCCATCTAC”, the binding signal was 1.07 RPM ratio (pull-down/input).

Take “GATGATTGTTCTCCCAGCTGATGAATTCACGTGTTCGAGTAAACAAATTTTCCTAATCTTTCTGTTCAAGCGCCATCTAC”: the binding signal was 1.02 RPM ratio (pull-down/input).

Take “GATGATTGTTCTCCCAGCTGATGAATTCTAAAATTCGAGTAAACAAATTTTCCTAATCTTTCTGTTCAAGCGCCATCTAC”: the binding signal was 0.867 RPM ratio (pull-down/input).

With “GATGATTGTTCTCCCAGCTGATGAATTCACATGGTCGAGTAAACAAATTTTCCTAATCTTTCTGTTCAAGCGCCATCTAC”, the binding signal was 0.9 RPM ratio (pull-down/input).

On to “GATGATTGTTCTCCCAGCTGATGAATTGTATCTTTCGAGTAAACAAATTTTCCTAATCTTTCTGTTCAAGCGCCATCTAC”, for which the binding signal was 1.31 RPM ratio (pull-down/input).

For “GATGATTGTTCTCCCAGCTGATGAATTCATGGCGTCGAGTAAACAAATTTTCCTAATCTTTCTGTTCAAGCGCCATCTAC”, the binding signal was 0.863 RPM ratio (pull-down/input).

As to “GATGATTGTTCTCCCAGCTGATGAATTATGCGTTTCGAGTAAACAAATTTTCCTAATCTTTCTGTTCAAGCGCCATCTAC”, the binding signal was 1.06 RPM ratio (pull-down/input).

As to “GATGATTGTTCTCCCAGCTGATGAATTCGCTCCCTCGAGTAAACAAATTTTCCTAATCTTTCTGTTCAAGCGCCATCTAC”, the binding signal is 0.784 RPM ratio (pull-down/input).

For “GATGATTGTTCTCCCAGCTGATGAATTACTTTAATCGAGTAAACAAATTTTCCTAATCTTTCTGTTCAAGCGCCATCTAC”, the binding signal was 1.26 RPM ratio (pull-down/input).

In the case of “GATGATTGTTCTCCCAGCTGATGAATTCCGCGGCTCGAGTAAACAAATTTTCCTAATCTTTCTGTTCAAGCGCCATCTAC”, the binding signal is 0.784 RPM ratio (pull-down/input).

Turning to “GATGATTGTTCTCCCAGCTGATGAATTTGATCGATCGAGTAAACAAATTTTCCTAATCTTTCTGTTCAAGCGCCATCTAC”, the binding signal is 0.901 RPM ratio (pull-down/input).

Turning to “GATGATTGTTCTCCCAGCTGATGAATTATCGCTATCGAGTAAACAAATTTTCCTAATCTTTCTGTTCAAGCGCCATCTAC”, the binding signal is 1.17 RPM ratio (pull-down/input).

As for “GATGATTGTTCTCCCAGCTGATGAATTGCGTGCTTCGAGTAAACAAATTTTCCTAATCTTTCTGTTCAAGCGCCATCTAC”, the binding signal was 1.12 RPM ratio (pull-down/input).

With “GATGATTGTTCTCCCAGCTGATGAATTTGCAGCGTCGAGTAAACAAATTTTCCTAATCTTTCTGTTCAAGCGCCATCTAC”, the binding signal is 0.944 RPM ratio (pull-down/input).

For the sequence “GATGATTGTTCTCCCAGCTGATGAATTTTCCGTGTCGAGTAAACAAATTTTCCTAATCTTTCTGTTCAAGCGCCATCTAC”, the binding signal is 0.971 RPM ratio (pull-down/input).

“GATGATTGTTCTCCCAGCTGATGAATTCCGCGGGTCGAGTAAACAAATTTTCCTAATCTTTCTGTTCAAGCGCCATCTAC”: the binding signal is 0.762 RPM ratio (pull-down/input).

Turning to “GATGATTGTTCTCCCAGCTGATGAATTGGGACTGTCGAGTAAACAAATTTTCCTAATCTTTCTGTTCAAGCGCCATCTAC”, the binding signal was 0.862 RPM ratio (pull-down/input).

Take “GATGATTGTTCTCCCAGCTGATGAATTGCGGCTATCGAGTAAACAAATTTTCCTAATCTTTCTGTTCAAGCGCCATCTAC”: the binding signal is 1.02 RPM ratio (pull-down/input).

In the case of “GATGATTGTTCTCCCAGCTGATGAATTCAAGTGCTCGAGTAAACAAATTTTCCTAATCTTTCTGTTCAAGCGCCATCTAC”, the binding signal was 0.841 RPM ratio (pull-down/input).
